From PubChem BioAssay AID686978 (National Center for Advancing Translational Sciences (NCATS), 2013)
In all, about 420,000 compounds went through this assay and about 64,000 (15%) were called active. The inconclusive results got no clear call from the source; some entries with a clear call stand among them for comparison. Calls follow the shape of the dose curve; as a rule, active = well fitted inhibition curve with a large enough effect; inconclusive = small, poorly fitted or top-dose-only effect; inactive = flat fitted curve, though single readings scatter. No potency is given beside an inconclusive call; the fits are too rough.

Test: qHTS for Inhibitors of human tyrosyl-DNA phosphodiesterase 1 (TDP1): qHTS in cells in absence of CPT; also: nearly all actives have a fitted effect of over 55% in size
Conditions: DT40 Tdp1-/- hTDP1 cells, no CPT, ATP luminescence, 48 h; activity change, negative = growth inhibition: at 46.2 µM (top of the series) unless noted
Method in brief: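 A cellular qHTS used chicken DT40 cells lacking endogenous Tdp1 but carrying stably transfected human TDP1. Compounds were applied without camptothecin, and cell growth kinetics were judged by ATP-dependent luminescence after ≥48 hr.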
% is scaled to controls: 0 for no effect and ±100 for the full control effect; potency is read from the fitted curve at half-maximal effect; tags tell the direction and shape of the fitted curve.

SMILES | Potency | activity change, negative = growth inhibition
COc1cc2nc(CCc3nc4cc(OC)c(OC)cc4[nH]3)[nH]c2cc1OC | active: 2 µM | 
COc1ccc(Cc2nnc(NC(=O)c3ccco3)s2)cc1OC |  | inconclusive: -36.8% [inhibitor]
COc1cc2c(cc1NC(=O)CSc1ccc(C)cc1)oc1ccccc12 | inconclusive [inhibitor, single point] | 
COc1ccc(OC)c(S(=O)(=O)Nc2ccc3c(c2)C(=O)OC3)c1 | active: 8.2 µM | 
CC(C)N1C(=S)SC2CS(=O)(=O)C=C21 (centres undefined) | inactive | 
COc1ccc(C(=O)NC(=S)N(C)C2CCCCC2)cc1 | inconclusive [inhibitor, single point] | 
Cc1ccc(-c2noc(-c3ccc(N4CCCCC4)c([N+](=O)[O-])c3)n2)cc1 | active: 20.6 µM | 
O=C(c1ccccc1)N1CCN(S(=O)(=O)c2cccc(NS(=O)(=O)c3ccccc3)c2)CC1 | inactive | 
C[C@@H]1CN([C@@H](C)CO)C(=O)Cc2cc(NC(=O)Nc3ccc4c(c3)OCO4)ccc2O[C@@H]1CN(C)C(=O)NC1CCCCC1 | inconclusive [inhibitor, single point] | 
COc1ccc(-c2nc(C#N)c(NCCc3ccccc3)o2)cc1 | active: 14.1 µM | 
CCn1nnnc1SCC(=O)N1N=C(c2cccs2)CC1c1cccs1 (centres undefined) | inconclusive [inhibitor, single point] | 
COC(=O)c1c(NC(=O)CN2C(=O)NC3(CCc4ccccc4C3)C2=O)sc2c1CCCCC2 (centres undefined) | active: 25.9 µM | 
COc1ccc(S(=O)(=O)NCc2ccco2)cc1NC(=O)c1ccccc1 | inconclusive [inhibitor, partial curve] | 
COCc1nnc(NC(=O)C2CC(=O)N(c3ccc(C)c(Cl)c3)C2)s1 (centres undefined) | inactive | 
COc1ccc(/C=C/C(=O)C2CC2)cc1COc1c(C)cccc1C | inconclusive [inhibitor, single point] | 
COc1ccc(CNc2nc(=S)[nH]c3cc(OC)c(OC)cc23)cc1 | inconclusive [inhibitor, single point] | 
O=C1Nc2ccccc2S/C1=C/Nc1cccc(Cl)c1 | inconclusive [inhibitor, single point] | 
CNC(=O)COc1ccc(NC(=O)c2ccc(-c3nn(C)c(=O)c4ccccc34)cc2)cc1 | inconclusive [inhibitor, single point] | 
O=c1[nH]cnc2c1c(-c1ccccc1)cn2-c1cccc(Cl)c1 | inconclusive [inhibitor, single point] | 
COc1ccc(C(C(=O)NCc2ccccc2)N(Cc2ccco2)C(=O)c2snc(C(N)=O)c2N)cc1OC (centres undefined) | inconclusive [inhibitor, single point] | 
COc1ccc(NC(=O)CN2CCC(C(=O)c3ccc(C)cc3)CC2)c(OC)c1 | inconclusive [inhibitor, partial curve] | 
Cc1cc(OCC(O)CNC(C)(C)C)ccc1Cl (centres undefined) | inconclusive [inhibitor, single point] | 

SMILES | Potency | activity change, negative = growth inhibition
O=C(CN1CCN(Cc2ccccc2)CC1)Nc1cccc(Cl)c1Cl | active: 20.6 µM | 
COc1ccc(SCCN2CC[C@@H](O)CCC2=O)cc1 | inactive | 
CCCCCC1CC(CC(=O)Nc2ccc([N+](=O)[O-])cc2)C(=O)O1 (centres undefined) | inconclusive [inhibitor, single point] | 
c1ccc2nc(-c3ccc(-n4ccnc4)cc3)ccc2c1 | inactive | 
CCOc1ccc2c(c1)c1nnc(SCC(=O)NC3CC3)nc1n2C |  | inconclusive: -30.8% [inhibitor]
Clc1ncnc2scc(C3COc4ccccc4O3)c12 (centres undefined) | active: 16.4 µM | 
CCOC(=O)Cc1csc(NC(=O)c2sc3nc4cc(C)ccc4cc3c2N)n1 | inconclusive [inhibitor, single point] | 
O=C(NCc1cccs1)C1CCCN(S(=O)(=O)c2ccc(Br)s2)C1 (centres undefined) | inconclusive [inhibitor, partial curve, poor fit] | 
Cc1cc(C)c2c(-n3cccc3)c(C(=O)NCCCN3CCCCC3C)sc2n1 (centres undefined) | inactive | 
Cc1ccc(N(C)S(=O)(=O)c2ccc(-c3cc(C)no3)s2)cc1 | inactive | 
CC(C)(C)OC(=O)C[C@H]1C/C=C\C[C@H](CC(=O)N[C@H](CO)Cc2ccccc2)C(=O)N[C@@H](Cc2ccccc2)COC1=O | active: 14.6 µM | 
C#CCN(C[C@@H]1[C@@H](OC(=O)NCC2CCCCC2)[C@@H](OC(=O)NCC2CCCCC2)CN(C(=O)OC(C)C)N1C(=O)OC(C)C)S(=O)(=O)c1ccc(C)cc1 | active: 7.31 µM | 
CCOC(=O)C(=C1Nc2ccccc2N1)n1c(-c2cccnc2)nc2ccccc21 | inconclusive [inhibitor, partial curve, poor fit] | 
CCCn1c(=O)c2c(nc3n2CCCN3CCc2ccccc2)n(C)c1=O | inconclusive [inhibitor, single point] | 
Cc1nn(S(=O)(=O)c2ccc(Cl)cc2)c(C)c1S(=O)(=O)N1CCCCCC1 | inactive | 
CC(=O)Nc1ccc2nc(NC(=O)c3cccnc3)sc2c1 | inconclusive [inhibitor, single point] | 
Cc1ccc(NC(=O)CN(C)C(=O)COC(=O)C2=COCCO2)cc1 | inactive | 
CC1(C)C(=O)C=C[C@]2(C)C1CC(=O)[C@]1(C)C2CC[C@@]2(C)C(c3ccoc3)OC(=O)C3O[C@@]321 (some centres undefined) | inconclusive [inhibitor, single point] | 
CC(=O)Nc1nonc1-c1nnc(SCc2ccc(Cl)cc2)n1C | inconclusive [inhibitor, single point] | 
O=C(NCC1COc2ccccc2O1)c1cccc(S(=O)(=O)N2CCCCC2)c1 (centres undefined) | inconclusive [inhibitor, single point] | 
COCCOC(=O)c1c(C)nc(SCC(=O)Nc2cccc3ccccc23)c(C#N)c1-c1ccco1 | active: 29.1 µM | 
Cc1cc(Cl)ccc1C(O)c1ncc(-c2ccccc2Cl)[nH]1 (centres undefined) | inconclusive [inhibitor, single point] | 
